Laboratory results from PubChem BioAssay AID602233 (National Center for Advancing Translational Sciences (NCATS), 2012).
The whole screen tested about 380,000 compounds, of which about 170 (0.045%) were called active. The call rests on the fitted dose curve; in most records, active means well fitted inhibition curve with a large enough effect; inconclusive means small, poorly fitted or top-dose-only effect; inactive means no such curve, though single readings can be large or run the other way. Inconclusive results, whose numbers are uncertain, are shown. No potency is given beside an inconclusive call; the fits are too rough.
Further: nearly all actives have a fitted effect of over 60% in size.
Potency means the concentration at half of the fitted maximal effect; tags describe the fitted curve by direction and shape.

These molecules were tested against Phosphoglycerate kinase, glycosomal (Trypanosoma brucei brucei) (UniProt P07378) (assay: qHTS Assay to Find Inhibitors of Phosphoglycerate Kinase). Details: PGK/GAPDH coupled, Kinase-Glo luminescence, 60 min; series mostly up to 57.5 µM.
Source text: Several species of the Trypanosomatidae family of parasitic protozoans cause a spectrum of diseases throughout the tropical and subtropical world. Sleeping sickness, caused by two subspecies of Trypanosoma brucei, is endemic to areas of sub-Saharan Africa, while Chagas disease, a manifestation of Trypanosoma cruzi infection, is prevalent throughout Central and South America. In addition, many species of Leishmania are responsible for a range of cutaneous and visceral diseases, causing ulcers, destructive lesions and kalaazar, a lethal infection of the viscera. Collectively, these organisms infect 30 million people worldwide (~500 million live in endemic areas), and account for ~130,000 deaths annually. Given their debilitating and prevalent nature, trypanosomatid parasites impose a heavy medical, economic and social burden on entire populations, primarily in the developing world. […]
3ul of substrate/PGK buffer (columns 1,2,5-48) are dispensed into Greiner white solid bottom 1536-well assay plates; columns 3-4 receive only TEA buffer as 0x PGK controls. […] Kinase-Glo Plus reagent is added (2ul) and plates incubated for 10 minutes, before being transferred to a ViewLux high-throughput CCD imager (PerkinElmer) wherein single end-point measurements of luminescence are acquired using a clear filter. […]
For `COc1cc(/C=C2\C(=N)N3N=C(S(C)(=O)=O)SC3=NC2=O)ccc1OCCOc1ccccc1C`, the Potency was inconclusive [inhibitor, single point]. With `Cc1c(CC(=O)O)c(=O)oc2c(C)c3occ(-c4ccc(Br)cc4)c3cc12` the Potency was inconclusive [inhibitor, partial curve, poor fit].
